± gives the standard deviation of the averaged measurements. This is one part of the list.
Test system: PfAP2-EXP AP2 domain (GST-tagged)
Assay: gcPBM binding intensity (ln(normalized median fluorescence intensity)); higher = stronger DNA binding
Procedure, shortened: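 Each value is the highest Masliner-normalised natural-log median intensity across replicate spots of either orientation of a probe. The probes were primer-extended double-stranded 36-bp intergenic genomic sequences on an Agilent 4 × 180k array, alongside negative controls, exposed for 1 h to GST-tagged P. falciparum DNA-binding domains expressed in E. coli. Bound protein was picked up with Alexa488 anti-GST antibody and scanned at 488 nm.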

Sequence	gcPBM binding intensity (ln)
AGCTACACACCACAATGTACATAAATATATATGTGA [XGTACX_site1483]	8.59 ± 0.45
TTGTTTTTGTTCTTGGGTACTTAAATTATAAATGAT [XGTACX_site113]	8.88 ± 0.45
TCTTATGAATATCCCCGTACACATATATTTCTTATA [XGTACX_site6877]	8.81 ± 0.38
TATTGTATATACTATACACACACATACATACATACA [CACACA_site8172]	9.26 ± 0.17
AGAATATTTAATTCAACACACATACATATTTATTAA [CACACA_site5318]	8.21 ± 0.38
GAAGCCCTATGAAAAGTGCGGTTCATGAACAAAGAA [GTGCAC_site9828]	8.99 ± 0.41
TACTTTATATAAAGATCAAAAAATAAATAATTATAA [TGCATGCA_negctrl_site446]	8.45 ± 0.21
GGATAATATATTAGAACACACATATAGATGTAAAAA [CACACA_site6229]	8.57 ± 0.54
ATATATTTATATAAATGTACATACAGCACATTTATA [XGTACX_site4725]	8.44 ± 0.4
CAAATATACATATGTAGTACATGTTGTAGATAATTT [XGTACX_site2790]	8.66 ± 0.33
ATAAGGAAGGGATGCACACAAAAGGGTACATAAGAA [CACACA_site4006]	8.93 ± 0.35
TTTGAATCCTTATATACACACATTATAAAATATTAT [CACACA_site6406]	8.49 ± 0.39
TATTTGTAAATCGATACACACATATAGATTAATATA [CACACA_site6237]	8.46 ± 0.5
CGTATATGACAAAAGCGTACGCATCAGCAGAAAAAT [XGTACX_site6248]	9.29 ± 0.5
ATATATATATATATATGTACTGAATAAAGAACAAAA [XGTACX_site5400]	10.1 ± 0.42
AAAAAAAATGATAATATACACACTTATGGGAGAGCG [CACACA_site2516]	8.4 ± 0.28
AGAAATAAGAAATATACACACATATAAATATAAATA [CACACA_site7342]	8.52 ± 0.55
TAAAAAAAAACATATACACACAAAAACGTACACATA [CACACA_site1354]	8.86 ± 0.36
TTTTTTTCTCACAATCGTACATAAATACATATATAT [XGTACX_site3150]	8.67 ± 0.26
AGAATATGTTAAAAAAGTACATACTCTTTATATACG [XGTACX_site79]	8.35 ± 0.29
AGGGGAAATAAAATATAAATTATCATATATATATAT [XGTACX_negctrl_site366]	9.94 ± 0.21
TAATGTACATAAACCGCACACATATAAAAAAATAAA [CACACA_site2851]	8.74 ± 0.52
TATATTTTTTAAACCACACACAATATAGAGTAGAAT [CACACA_site613]	8.83 ± 0.35
TGTATATATAAACATGCACACGTGGTTGTATATATA [CACACA_site9078]	8.54 ± 0.2

Reference: the supplement of paper PMC11417369
